Data taken from the supplement of paper PMC8728848.
The other results are listed elsewhere or left out.

Assays:
Assay in all cases: glycan array binding signal (z-score within array); higher = stronger binding
Conditions in all cases: glycan notation: IUPAC condensed, linker removed; mutation: R74S
[1] = molecular target: GlcNAc(b1-2)[GlcNAc(b1-4)]Man(a1-3)[GlcNAc(b1-4)][GlcNAc(b1-2)Man(a1-6)]Man(b1-4)GlcNAc(b1-4)GlcNAc
How it was run: (§1)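 The binding signal is a Z-score computed within each array. Data were drawn from 3228 arrays in the Consortium for Functional Glycomics database, restricted to those with a known protein sequence. Scores were averaged over arrays of the same protein sequence at different concentrations or buffers, and over linkers, and negative values can be taken as non-binding.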

[2] = molecular target: GlcNAc(b1-2)[GlcNAc(b1-4)]Man(a1-3)[GlcNAc(b1-4)][GlcNAc(b1-2)[GlcNAc(b1-6)]Man(a1-6)]Man(b1-4)GlcNAc(b1-4)GlcNAc
How it was run: as §1

[3] = molecular target: GlcNAc(b1-2)[GlcNAc(b1-4)]Man(a1-3)[GlcNAc(b1-4)][GlcNAc(b1-2)[GlcNAc(b1-6)]Man(a1-6)]Man(b1-4)GlcNAc(b1-4)[Fuc(a1-6)]GlcNAc
How it was run: as §1

[4] = molecular target: GlcNAc(b1-2)[GlcNAc(b1-6)]Man(a1-6)[GlcNAc(b1-2)Man(a1-3)]Man(b1-4)GlcNAc(b1-4)GlcNAc
How it was run: as §1

[5] = molecular target: GlcNAc(b1-2)[GlcNAc(b1-6)]Man(a1-6)[GlcNAc(b1-2)Man(a1-3)]Man(b1-4)GlcNAc(b1-4)[Fuc(a1-6)]GlcNAc
How it was run: as §1

[6] = molecular target: GlcNAc(b1-2)[GlcNAc(b1-6)]Man(a1-6)[GlcNAc(b1-4)][GlcNAc(b1-2)Man(a1-3)]Man(b1-4)GlcNAc(b1-4)GlcNAc
How it was run: as §1

GlcNAc(b1-3)Fuc = molecular target: GlcNAc(b1-3)Fuc
How it was run: as §1

GlcNAc(b1-3)Gal = molecular target: GlcNAc(b1-3)Gal
How it was run: as §1

[7] = molecular target: GlcNAc(b1-3)Gal(b1-3)GalNAc
How it was run: as §1

GlcNAc(b1-3)Gal(b1-4)Glc = molecular target: GlcNAc(b1-3)Gal(b1-4)Glc
How it was run: as §1

[8] = molecular target: GlcNAc(b1-3)Gal(b1-4)GlcNAc
How it was run: as §1

[9] = molecular target: GlcNAc(b1-3)Gal(b1-4)GlcNAc(b1-2)Man(a1-3)[GlcNAc(b1-3)Gal(b1-4)GlcNAc(b1-2)Man(a1-6)]Man(b1-4)GlcNAc(b1-4)GlcNAc
How it was run: as §1

[10] = molecular target: GlcNAc(b1-3)Gal(b1-4)GlcNAc(b1-2)Man(a1-3)[GlcNAc(b1-3)Gal(b1-4)GlcNAc(b1-2)Man(a1-6)]Man(b1-4)GlcNAc(b1-4)[Fuc(a1-6)]GlcNAc
How it was run: as §1

[11] = molecular target: GlcNAc(b1-3)Gal(b1-4)GlcNAc(b1-2)[GlcNAc(b1-3)Gal(b1-4)GlcNAc(b1-6)]Man(a1-6)[GlcNAc(b1-3)Gal(b1-4)GlcNAc(b1-2)Man(a1-3)]Man(b1-4)GlcNAc(b1-4)GlcNAc
How it was run: as §1

[12] = molecular target: GlcNAc(b1-3)Gal(b1-4)GlcNAc(b1-3)Gal(b1-4)GlcNAc
How it was run: as §1

[13] = molecular target: GlcNAc(b1-3)Gal(b1-4)GlcNAc(b1-3)Gal(b1-4)GlcNAc(b1-2)Man(a1-3)[GlcNAc(b1-3)Gal(b1-4)GlcNAc(b1-3)Gal(b1-4)GlcNAc(b1-2)Man(a1-6)]Man(b1-4)GlcNAc(b1-4)GlcNAc
How it was run: as §1

[14] = molecular target: GlcNAc(b1-3)Gal(b1-4)GlcNAc(b1-3)Gal(b1-4)GlcNAc(b1-2)Man(a1-3)[GlcNAc(b1-3)Gal(b1-4)GlcNAc(b1-3)Gal(b1-4)GlcNAc(b1-2)Man(a1-6)]Man(b1-4)GlcNAc(b1-4)[Fuc(a1-6)]GlcNAc
How it was run: as §1

[15] = molecular target: GlcNAc(b1-3)Gal(b1-4)GlcNAc(b1-3)Gal(b1-4)GlcNAc(b1-2)[GlcNAc(b1-3)Gal(b1-4)GlcNAc(b1-3)Gal(b1-4)GlcNAc(b1-6)]Man(a1-6)[GlcNAc(b1-3)Gal(b1-4)GlcNAc(b1-3)Gal(b1-4)GlcNAc(b1-2)Man(a1-3)]Man(b1-4)GlcNAc(b1-4)[Fuc(a1-6)]GlcNAc
How it was run: as §1

[16] = molecular target: GlcNAc(b1-3)Gal(b1-4)GlcNAc(b1-3)Gal(b1-4)GlcNAc(b1-3)Gal(b1-4)GlcNAc(b1-2)Man(a1-3)[GlcNAc(b1-3)Gal(b1-4)GlcNAc(b1-3)Gal(b1-4)GlcNAc(b1-3)Gal(b1-4)GlcNAc(b1-2)Man(a1-6)]Man(b1-4)GlcNAc(b1-4)GlcNAc
How it was run: as §1

[17] = molecular target: GlcNAc(b1-3)Gal(b1-4)GlcNAc(b1-3)Gal(b1-4)GlcNAc(b1-3)Gal(b1-4)GlcNAc(b1-2)Man(a1-3)[GlcNAc(b1-3)Gal(b1-4)GlcNAc(b1-3)Gal(b1-4)GlcNAc(b1-3)Gal(b1-4)GlcNAc(b1-2)Man(a1-6)]Man(b1-4)GlcNAc(b1-4)[Fuc(a1-6)]GlcNAc
How it was run: as §1

[18] = molecular target: GlcNAc(b1-3)Gal(b1-4)GlcNAc(b1-3)Gal(b1-4)GlcNAc(b1-3)Gal(b1-4)GlcNAc(b1-2)[GlcNAc(b1-3)Gal(b1-4)GlcNAc(b1-3)Gal(b1-4)GlcNAc(b1-3)Gal(b1-4)GlcNAc(b1-6)]Man(a1-6)[GlcNAc(b1-3)Gal(b1-4)GlcNAc(b1-3)Gal(b1-4)GlcNAc(b1-3)Gal(b1-4)GlcNAc(b1-2)Man(a1-3)]Man(b1-4)GlcNAc(b1-4)[Fuc(a1-6)]GlcNAc
How it was run: as §1

[19] = molecular target: GlcNAc(b1-3)Gal(b1-4)GlcNAc(b1-3)Gal(b1-4)GlcNAc(b1-3)Gal(b1-4)GlcNAc(b1-3)Gal(b1-4)GlcNAc(b1-2)Man(a1-3)[GlcNAc(b1-3)Gal(b1-4)GlcNAc(b1-3)Gal(b1-4)GlcNAc(b1-3)Gal(b1-4)GlcNAc(b1-3)Gal(b1-4)GlcNAc(b1-2)Man(a1-6)]Man(b1-4)GlcNAc(b1-4)GlcNAc
How it was run: as §1

[20] = molecular target: GlcNAc(b1-3)Gal(b1-4)GlcNAc(b1-3)Gal(b1-4)GlcNAc(b1-3)Gal(b1-4)GlcNAc(b1-3)Gal(b1-4)GlcNAc(b1-2)Man(a1-3)[GlcNAc(b1-3)Gal(b1-4)GlcNAc(b1-3)Gal(b1-4)GlcNAc(b1-3)Gal(b1-4)GlcNAc(b1-3)Gal(b1-4)GlcNAc(b1-2)Man(a1-6)]Man(b1-4)GlcNAc(b1-4)[Fuc(a1-6)]GlcNAc
How it was run: as §1

B1: Gal 7 (Homo sapiens) (protein)
chain: MSNVPHKSSLPEGIRPGTVLRIRGLVPPNASRFHVNLLCGEEGGSDAALHFNPRLDTSEVVFNSKEGGSWGREESGPGVPFGRGQPFEVLIIASDDGFKAVVGDAQYHHFRHRLPLARVRLVEVGGDVQLDSVRIF
For B1, the “glycan array binding signal (z-score)” value [1] was -0.174, the “glycan array binding signal (z-score)” value [2] was -0.243 and the “glycan array binding signal (z-score)” value [3] was -0.168. For the same binder, the “glycan array binding signal (z-score)” value [4] was 0.231, the “glycan array binding signal (z-score)” value [5] was 0.961 and the “glycan array binding signal (z-score)” value [6] was -0.37. For the same binder, the “glycan array binding signal (z-score)” value (GlcNAc(b1-3)Fuc) was 0.85, the “glycan array binding signal (z-score)” value (GlcNAc(b1-3)Gal) was -0.488 and the “glycan array binding signal (z-score)” value [7] was -0.21. The “glycan array binding signal (z-score)” value (GlcNAc(b1-3)Gal(b1-4)Glc) was -0.494, the “glycan array binding signal (z-score)” value [8] was -0.635 and the “glycan array binding signal (z-score)” value [9] was 0.44. For the same binder, the “glycan array binding signal (z-score)” value [10] was 1.15, the “glycan array binding signal (z-score)” value [11] was -0.075 and the “glycan array binding signal (z-score)” value [12] was -0.579. For the same binder, the “glycan array binding signal (z-score)” value [13] was 1.29, the “glycan array binding signal (z-score)” value [14] was 1.85 and the “glycan array binding signal (z-score)” value [15] was 1.67. For the same binder, the “glycan array binding signal (z-score)” value [16] was 0.875, the “glycan array binding signal (z-score)” value [17] was 4.14 and the “glycan array binding signal (z-score)” value [18] was 1.9. The “glycan array binding signal (z-score)” value [19] was 2.63 and the “glycan array binding signal (z-score)” value [20] was 2.87.
